Assay results as given in publication PMC4336329 (PLoS ONE, 2015).
Among all 310,000 compounds or so, about 2,200 (0.71%) showed an effect of 50% or more. Effects have a minus sign here. The list shows a part of the results.

Target: human ether-à-go-go-related gene (hERG) potassium channel (human, UniProt Q12809)
Assay: primary screen, population patch clamp on CHO cells stably expressing hERG

human ether-à-go-go-related gene (hERG) potassium channel, sequence (Q12809 whole entry, looked up): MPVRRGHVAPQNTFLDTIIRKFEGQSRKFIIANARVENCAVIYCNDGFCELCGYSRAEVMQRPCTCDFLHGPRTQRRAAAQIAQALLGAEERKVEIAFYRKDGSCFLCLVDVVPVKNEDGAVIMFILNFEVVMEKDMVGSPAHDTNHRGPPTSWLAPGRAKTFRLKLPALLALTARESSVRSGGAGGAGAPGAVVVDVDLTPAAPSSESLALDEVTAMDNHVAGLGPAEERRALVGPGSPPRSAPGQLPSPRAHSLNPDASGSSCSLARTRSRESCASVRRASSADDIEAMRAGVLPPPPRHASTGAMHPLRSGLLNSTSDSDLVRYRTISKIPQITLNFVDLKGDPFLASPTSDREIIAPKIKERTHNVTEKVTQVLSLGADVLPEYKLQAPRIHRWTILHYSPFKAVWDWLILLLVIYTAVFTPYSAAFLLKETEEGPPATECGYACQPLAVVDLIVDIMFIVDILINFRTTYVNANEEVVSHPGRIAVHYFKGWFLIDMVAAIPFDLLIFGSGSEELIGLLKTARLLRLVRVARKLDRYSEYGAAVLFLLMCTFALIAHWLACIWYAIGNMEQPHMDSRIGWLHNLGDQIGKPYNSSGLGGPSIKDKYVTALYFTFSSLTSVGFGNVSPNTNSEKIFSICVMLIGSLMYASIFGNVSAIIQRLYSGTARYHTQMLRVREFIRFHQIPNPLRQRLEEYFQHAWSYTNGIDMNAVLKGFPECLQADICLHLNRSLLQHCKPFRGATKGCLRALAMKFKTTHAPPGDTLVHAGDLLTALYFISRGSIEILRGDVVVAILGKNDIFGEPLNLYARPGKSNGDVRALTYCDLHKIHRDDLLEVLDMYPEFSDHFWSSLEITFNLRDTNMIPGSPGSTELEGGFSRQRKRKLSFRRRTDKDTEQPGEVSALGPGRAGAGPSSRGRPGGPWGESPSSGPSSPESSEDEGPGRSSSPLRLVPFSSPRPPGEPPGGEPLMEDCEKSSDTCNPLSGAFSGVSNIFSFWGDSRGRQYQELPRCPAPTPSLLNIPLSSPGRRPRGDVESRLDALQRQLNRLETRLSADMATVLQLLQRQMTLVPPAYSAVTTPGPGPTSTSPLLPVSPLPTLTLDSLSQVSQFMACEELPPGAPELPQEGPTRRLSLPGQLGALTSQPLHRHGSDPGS

| Compound | hERG current change (%, negative = inhibition) at 1uM [%] |
| --- | --- |
| Cc1onc(-c2ccc(Cl)cc2)c1-c1ccnn1S(=O)(=O)c1cccc(C(F)(F)F)c1 | 3.61 |
| CCCCOCCCNC(=O)/C=C/c1ccccc1Cl | 5.29 |
| COc1cccc(/C=N/NC(=O)CNC(=O)c2cccs2)c1O | 15.2 |
| CN(C)c1ccc(/C=N\NC(=O)CC#N)cc1 | 13.1 |
| NC(=O)NC(c1ccccc1)c1ccccc1 | 8.55 |
| Cn1c(=O)[nH]c(=O)c2c1nc(NCCc1ccccc1)n2CC(O)COc1ccccc1 (centres unmarked) | 11.2 |
| Cn1c(Cn2c(=O)sc3ccccc32)nnc1SCC(=O)NCc1ccco1 | -3.88 |
| Br.CCc1nnc2n1N=C(c1ccccc1)CS2 | 12.7 |
| NC(=O)C1(NC(=O)[C@@H]2CC3(CC(c4cccc(NC(=O)c5cc([N+](=O)[O-])cc([N+](=O)[O-])c5)c4)=NO3)CN2C(=O)c2ccccc2)CC1 (some centres unmarked) | 10.1 |
| CC(C)c1ccc(N2C(=O)CC(Sc3ncccn3)C2=O)cc1 (centres unmarked) | 6.92 |
| CC(=O)N1CCN(c2ccc(NC(=O)COc3ccc(Cl)cc3Cl)cc2)CC1 | 16.9 |
| CCN(C(=O)c1coc(=O)c(Br)c1)c1ccc2c(c1)OCO2 | 13.6 |
| O=[N+]([O-])c1cccc(CP(=O)(c2ccccc2)c2ccccc2)c1 | 10.8 |
| C/C(=N/NC(=O)CNC(=O)c1ccncc1)c1ccco1 | -0.0025 |
| Cc1nn(C)c(C)c1CN(C)C(=O)C1(C)CC1(Br)Br (centres unmarked) | 5.58 |
| CCOC(=O)C1CCN(C(=O)c2ccc(CNS(=O)(=O)c3ccc(C)cc3)cc2)CC1 | 9.81 |
| O=c1c2ccccc2nc(SCc2cccc(F)c2)n1-c1cccc(S(=O)(=O)N2CCCC2)c1 | 14.1 |
| CC(C)(C)c1ccc(C(=O)Nc2nnc(SCC(=O)NCC3CCCO3)s2)cc1 (centres unmarked) | 8.34 |
| O=C(NNC(=S)NCc1ccco1)c1ccc(S(=O)(=O)N2CCOCC2)cc1 | 12.3 |
| O=C(/C=C/c1ccccc1)Nc1ccc(Br)cn1 | 10.4 |
| COc1ccc(NC2CS(=O)(=O)CC2NCc2ccco2)cc1 (centres unmarked) | 8.7 |
| Cc1cc([N+](=O)[O-])ccc1NC1CCCC1 | 5.77 |

| Compound | hERG current change (%, negative = inhibition) at 1uM [%] |
| --- | --- |
| CC(C)(C)NC(=O)CN(C(=O)C1(C)CC(=O)N=C2C=CC=CN21)C1CCCC1 (centres unmarked) | 0.806 |
| COc1ccc(S(=O)(=O)Cc2ccc(C(=O)O)o2)cc1 | 18.7 |
| Cc1ccc(N(Cc2cc(=O)[nH]c3ccccc23)C(=O)CCl)cc1 | 11.3 |
| COc1ccc([C@H]2CC(=O)C=C(c3cc(Cl)cc(Cl)c3)C2)cc1 | 15.1 |
| Cn1c(=O)oc2cc(S(=O)(=O)NCCC(=O)N3CCN(c4ccccc4F)CC3)ccc21 | 8.47 |
| O=C(NCCCCc1ccccc1)c1ccccc1F | 12.5 |
| CCNC(=S)N/N=C/c1ccc(OCC(=O)Nc2ccc(OC)cc2)c(OC)c1 | 13.7 |
| Cc1ccccc1C=O | 7.1 |
| COCC(=O)Nc1ccc(-c2cn3cccnc3n2)cc1 | 6.22 |
| O=[N+]([O-])c1ccc(N2CCN(S(=O)(=O)Cc3ccccc3)CC2)cc1N1CCOCC1 | 0.81 |
| NC(=O)CC(NC(=O)Cc1ccc(Cl)cc1)c1ccc(NC2CCCC2)c([N+](=O)[O-])c1 (centres unmarked) | 9.22 |
| C#CC(CC)(CC)NC(=O)Nc1ccc(OCC)cc1 | -2.15 |
| COC(=O)CCN(C(=O)c1ccc(C)c([N+](=O)[O-])c1)c1ccccn1 | 10.2 |
| CC(=O)Nc1ccc(S(=O)(=O)N2CCC(C(=O)NCc3ccco3)CC2)cc1 | 8.19 |
| Cc1ccc(N(CC(=O)NCc2ccc3c(c2)OCO3)C(=O)CCC(=O)Nc2ccccn2)cc1 | 8.99 |
| Cc1ccc2c(c1)N(CC(=O)c1cccc(Cl)c1)C(=O)C(C)O2 (centres unmarked) | -2.95 |
| CC(=O)Nc1cc(S(=O)(=O)Nc2ccccc2C)c(C)cc1C | 1.88 |
| CSc1ccc(/C=N/n2c(C3CCCCC3)n[nH]c2=S)cc1 | 18 |
| O=C(NNC(=O)c1cccc2ccccc12)c1ccco1 | 14.7 |
| Cc1cccc(OCC(=O)NCC2CCCO2)c1C (centres unmarked) | -5.97 |
| CCSc1nc(-c2ccco2)ccc1C#N | 1.41 |
| CCCCC1=CC2=CC(=O)C(C)(OC(=O)CC)C(=O)C2=CN1c1ccc(OC)cc1 (centres unmarked) | 4.57 |
